According to PubChem BioAssay AID686978 (National Center for Advancing Translational Sciences (NCATS), 2013):
About 64,000 (15%) of roughly 420,000 compounds were called active. The shares of active, inactive and inconclusive entries below differ from those in the screen. Calls come from the whole dose curve; as a rule, active = well fitted inhibition curve with a large enough effect; inconclusive = small, poorly fitted or top-dose-only effect; inactive = flat fitted curve, though single readings scatter. Potencies of inconclusive entries are left out as doubtful fits.
% is set by controls: 0 for no effect and ±100 for the full control effect; potency is the fitted concentration of half-maximal effect; tags give direction and shape of the fitted curve.

Assay: qHTS for Inhibitors of human tyrosyl-DNA phosphodiesterase 1 (TDP1): qHTS in cells in absence of CPT; note: nearly all actives have a fitted effect of over 55% in size
Conditions: DT40 Tdp1-/- hTDP1 cells, no CPT, ATP luminescence, 48 h; activity change, negative = growth inhibition: at 46.2 µM (top of the series) unless noted
Summary of the method: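 Chicken DT40 Tdp1-/- cells stably complemented with human TDP1 were seeded at 400 cells/well with DMSO in place of 20 nM camptothecin. After compound pinning, cells grew at least 48 hr at 37 °C; viability read by CellTiter-Glo luminescence.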
With C=CCn1c(=N)n(CC(=O)c2cccc([N+](=O)[O-])c2)c2ccccc21 the Potency was inconclusive [inhibitor, single point]. For O=C(NCc1ccc(C(F)(F)F)cc1)c1ccc(-c2cccnc2)c2ccoc12, the Potency was inconclusive [inhibitor, partial curve]. In the case of Cc1ccc(-c2noc(CCC(=O)NC3CCCC3)n2)cc1, the Potency is reported as inconclusive [inhibitor, single point]. In the case of Cc1ccc(COCC(CC(C)C)N2CCN(C(=O)c3cccc(C(F)(F)F)c3)CCC2=O)cc1 (stereo not given), the Potency is reported as inconclusive [inhibitor, single point]. For N#CC1=C(N)SC(N)=C(C#N)C1c1cccc(O)c1, the Potency was inconclusive [inhibitor, partial curve]. In the case of O=C(Nc1c(C(=O)O)[nH]c2ccccc12)NC1CCCCC1, the activity change, negative = growth inhibition is reported as inconclusive: -35.5% [inhibitor]. For COCCCNC(=O)CSc1nc2cc3c(cc2c(=O)n1CCCCCC(=O)NCc1ccc(OC)cc1)OCO3, the Potency was “inactive”. For CCCCC1(C(=O)OCC)NC(c2ccc(O)cc2)C2C(=O)N(c3ccccc3)C(=O)C21 (stereo not given), the Potency was inconclusive [inhibitor, single point]. For CCCc1nnc(NC(=O)Cc2coc3ccc(C(C)C)cc23)s1, the Potency was inconclusive [inhibitor, single point]. In the case of O=C(COC(=O)c1cc(S(=O)(=O)N2CCCC2)ccc1O)Nc1ccc(SC(F)F)cc1, the Potency is reported as “inactive”. For CC(=O)NS(=O)(=O)c1ccc(NC(=O)CCC(=O)Oc2ccc(C)cc2)cc1, the Potency was “inactive”. With CCOC(=O)[C@]12CCC=C1N(CCC1=CCCCC1)C(=O)[C@H](CC(=O)NCc1cccc(C(F)(F)F)c1)C2 the Potency was active: 20.6 µM. With CC1(C(=O)Nc2ccc3c(c2)OCCO3)CSCC(=O)N1CC(F)(F)F (stereo not given) the Potency was “inactive”. In the case of Cc1ccc(CN(C(=O)c2csnn2)C(C(=O)NC2CCCC2)c2ccc(C)o2)cc1 (stereo not given), the Potency is reported as inconclusive [inhibitor, single point]. In the case of COc1ccc(-n2nnc(-c3nsc(NC(=O)c4ccc(C)c(C)c4)n3)c2C)cc1Cl, the Potency is reported as inconclusive [inhibitor, full curve]. In the case of CC(C)N(C)C1=CC(=O)C(N(C)C(C)C)=CC1=O, the Potency is reported as inconclusive [inhibitor, single point]. For O=C(Nc1ccccc1O)c1cc2cc(Br)ccc2oc1=O, the Potency was inconclusive [inhibitor, single point]. With COc1ccc(CNc2ncc(-c3ccc(Br)cc3)n2C)cc1OC the Potency was inconclusive [inhibitor, single point]. With Cc1ccc(C)c(NC(=O)C2CCCN(S(=O)(=O)c3c(C)nn(C)c3C)C2)c1 (stereo not given) the Potency was active: 18.4 µM. With O=C(NCc1ccc2c(c1)OCO2)Nc1cccc(Cl)c1 the Potency was “inactive”. For Cc1cc(C)c(NS(=O)(=O)c2cc(-c3onc(C)c3C)ccc2C)c(C)c1, the Potency was active: 8.2 µM. With CCOc1ccc(C(=O)NC(=S)Nc2cccc(NC(=O)c3ccco3)c2)cc1[N+](=O)[O-] the Potency was active: 14.6 µM. In the case of CC(=O)NC(Cc1ccccc1)C(=O)OCC(=O)c1ccc(Cl)cc1 (stereo not given), the Potency is reported as “inactive”. In the case of CNS(=O)(=O)c1cccc(C(=O)NCC(C)(C)N2CCCCC2)c1, the Potency is reported as “inactive”. For Cc1ccc(C)c(NC(=O)COC(=O)c2ccc(S(=O)(=O)N3CCCCC3)cc2)c1, the Potency was “inactive”. For CC(=O)Nc1ccc(C2C(=O)c3ccccc3C2=O)cc1, the Potency was inconclusive [inhibitor, single point]. For COc1cc(C2c3cc4c(cc3OC(NCc3ccccc3)C2C)OCO4)cc(OC)c1OC (stereo not given), the Potency was active: 1.46 µM. In the case of Cc1ccc(S(=O)(=O)N[C@H](CNCc2ccccc2)C(C)C)cc1, the Potency is reported as inconclusive [inhibitor, single point]. With CCC/C(=C1/c2ccccc2C(=O)N1c1ccccc1)c1cnc(OC)nc1 the Potency was “inactive”. For COc1ccc(OC)c(C(=O)Nc2ccc3[nH]ccc3c2)c1, the Potency was “inactive”. With O=[N+]([O-])c1ccc(Cl)c(/C=N/n2c(COc3ccccc3)n[nH]c2=S)c1 the Potency was active: 20.6 µM. For CCOc1ccccc1Oc1coc2cc(O)ccc2c1=O, the activity change, negative = growth inhibition was inconclusive: -32.4% [inhibitor]. For O=C(O)c1ccc(-c2ccccc2)[nH]c1=O, the Potency was inconclusive [inhibitor, single point]. In the case of COc1ccccc1-c1noc(-c2ccc(NCc3ccco3)c([N+](=O)[O-])c2)n1, the Potency is reported as active: 11.6 µM. With CCCc1cc(-c2n[nH]c(C)c2-c2ccc(C(=O)OCC)o2)c(O)cc1O the Potency was inconclusive [inhibitor, single point]. In the case of Cn1c(C(=O)N2CCN(Cc3ccc4c(c3)OCO4)CC2)cc2sccc21, the Potency is reported as inconclusive [inhibitor, single point]. For COc1ccc(CN2CC(=O)N(c3ccccc3C)C2=S)cc1OC, the Potency was inconclusive [inhibitor, single point]. For Cc1cccc(N2CCN(C(=O)c3ccc4c(Cl)c5c(nc4c3)CCCC5)CC2C)c1 (stereo not given), the Potency was inconclusive [inhibitor, single point]. In the case of CCn1c(=O)c(C(=O)Nn2c(C)nc3ccccc3c2=O)c(O)c2ccccc21, the Potency is reported as inconclusive [inhibitor, single point]. With Cn1cnc(S(=O)(=O)N2C[C@@H](O)COC[C@@H]3O[C@H](CC(=O)NC4CCC4)CC[C@H]32)c1 the Potency was “inactive”. With CC(C)OC(=O)c1ccc(OC(=O)c2cccnc2)cc1 the Potency was inconclusive [inhibitor, partial curve]. With COc1ccc(NC(=O)Cn2nnc(C(=O)NCc3ccc4c(c3)OCO4)c2N)cc1 the Potency was “inactive”. For CCCCNc1ccc2oc(-c3ccc(OC)cc3)c(-c3ccc(OC)c(F)c3)c2c1, the Potency was inconclusive [inhibitor, single point]. For COC(=O)CSCC(=O)Nc1nnc(-c2ccccc2C)s1, the Potency was “inactive”. In the case of Cc1cccnc1NC(N)=S, the Potency is reported as “inactive”. In the case of O=C(/C=C/c1ccccc1)Nc1ccc(CN2CCOCC2)cc1, the Potency is reported as inconclusive [inhibitor, single point]. For Cc1cc(C)c([C@@H]2C[C@H]3CN(C4CCCC4)C(=O)[C@]34CCCN24)c(-n2cccn2)c1, the Potency was inconclusive [inhibitor, partial curve]. For Cc1ccc(NC(=O)CCC(=O)c2ccc(Cl)s2)nc1, the Potency was “inactive”. With COCCNC(=O)CCN1N=C(c2ccccc2)CCC1=O the Potency was “inactive”. In the case of Cn1nc(C(C)(C)C)cc1C(=O)NCc1ccc(N2CCCC2=O)cc1, the Potency is reported as active: 2.31 µM. For COc1ccccc1NC(=O)COC(=O)c1cc([N+](=O)[O-])ccc1N1CCCC1, the Potency was inconclusive [inhibitor, single point]. In the case of O=C(NCc1ccccc1Cl)c1cnc(N2CCOCC2)c2ccccc12, the Potency is reported as inconclusive [inhibitor, single point]. With CC1CC(C)CN(C(=O)C2CCCN(c3ncnc4c3nc3n4CCCCC3)C2)C1 (stereo not given) the Potency was active: 14.6 µM. For CCN(CC)c1ccc(C(=O)N/N=C(\C)c2ccc(O)cc2)cc1, the Potency was inconclusive [inhibitor, single point]. In the case of CCC1(c2ccc(F)cc2)NC(=O)N(CC(=O)N2CCN(S(=O)(=O)c3ccc(C)cc3)CC2)C1=O (stereo not given), the Potency is reported as “inactive”. For COc1ccc(C(=O)Nc2cc(OC)c(NC(=O)c3ccco3)cc2OC)cc1, the Potency was inconclusive [inhibitor, single point]. In the case of CCN(Cc1ccccc1)Cc1c(O)ccc2c(=O)c(-c3ccc(Cl)cc3)coc12, the Potency is reported as active: 20.6 µM. For COc1ccc(/C=N/NC(=O)c2ccn[nH]2)cc1COc1ccc(Cl)cc1Cl, the Potency was inconclusive [inhibitor, single point]. For O=C(NC(c1ccccc1)c1ccc2ccccc2n1)C1CCN(Cc2cccc(C(F)(F)F)c2)CC1 (stereo not given), the Potency was active: 6.51 µM. In the case of CCOC(=O)c1nn2c(C(F)(F)F)cc(-c3ccc(OC)cc3)nc2c1Br, the Potency is reported as inconclusive [inhibitor, single point]. For CCOC(=O)c1[nH]c(C(=O)O)c(OC(=O)CC)c1C, the Potency was “inactive”. For COc1cccc(CNC(=O)[C@@H]2CCCN2C(=O)[C@H]2CCCCN2C(=O)c2cccc3ccccc23)c1, the Potency was inconclusive [inhibitor, single point]. For C1=Nc2ccccc2CN1c1ccccc1, the Potency was inconclusive [inhibitor, single point]. With Cc1ccc(C)c(CSc2nnc(C)c(=O)[nH]2)c1 the Potency was inconclusive [inhibitor, single point]. In the case of CCOC(=O)[C@@H]1[C@H]2COc3ccccc3[C@H]2N2C(=O)N(c3ccc(Br)cc3)C(=O)[C@]12C, the Potency is reported as inconclusive [inhibitor, single point]. For O=C(C1CCC(Cn2c(=O)c3sccc3n(Cc3ccccc3)c2=O)CC1)N1CCCCC1 (stereo not given), the Potency was inconclusive [inhibitor, single point]. In the case of CCN1CCN(c2ccc(S(=O)(=O)N3CCCCC3)cc2NC(=O)c2ccc(OC(F)F)cc2)CC1, the Potency is reported as inconclusive [inhibitor, single point]. With O=C(Nc1ccn(Cc2c(F)c(F)c(F)c(F)c2F)n1)c1ccc(COc2ccccc2Cl)cc1 the Potency was inconclusive [inhibitor, partial curve, poor fit]. In the case of COc1ccc(NS(=O)(=O)c2ccc(/C=C/C(=O)O)cc2)cc1S(=O)(=O)N1CCOCC1, the Potency is reported as “inactive”. For COc1ccc(NC(=O)CN(C)C(=O)CN2C(=O)NC3(CCCCC3)C2=O)cc1, the Potency was inconclusive [inhibitor, partial curve].
